Molecules are shown by their SMILES. Values joined by “and” are separate entries in the source; they are usually repeats but may differ in a detail not shown here. Identical values can stand only once.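 Grown in 96-well plates, cells were treated for 48 hours with each compound at five concentrations. Insufficient inhibition: endpoint recorded as highest concentration tested. GI50: concentration for 50% inhibition of growth. TGI is the concentration that stops growth completely.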

This test concerns NCI-H322M lung. As to the kind of experiment: NCI anticancer screen, dose series, 48 h.
`N#Cc1c(Cl)cc(Cl)n2c1nc1ccccc12` yielded a TGI of 46.6 µM. With `COc1nc2nccnc2c(=O)n1C`, the TGI was above 10 µM. For `Br[C](Br)(Br)[Hg][c]1ccccc1`, the GI50 is 17.1 µM and the TGI turned out to be 30.9 µM. For `Clc1ccc2c(c1)-c1c3c(nn1-c1ccccc1)-c1ccccc1SC3O2` (stereo not given), the TGI was above 100 µM.

On to `O=C(O)/C=c1/c2ccccc2n2nc3ccccc3c12`, for which the TGI is 72.6 µM.

For `Cc1ccc2c(c1)C(=O)C1(C2)Cc2cccc(C)c2C1=O` (stereo not given), the TGI was above 100 µM.

`Cc1nc2sc3ccccc3n2c(=O)c1N=Nc1ccc(Cl)cc1`: the TGI was above 100 µM.

`CCC1(C)C=Cc2c(cc(O)c3c(=O)c4ccccc4n(C)c23)O1` (stereo not given) registered a TGI above 10 µM. The same measure, in the same setting: with `CC1CCCC(CC(=O)O)(CC(=O)O)C1` (stereo not given) the figure was above 100 µM. `COc1cc(/C=C/c2cc(/C=C/c3ccc(O)c(OC)c3)n(C(=O)Nc3ccc(C)cc3C)n2)ccc1O`: the GI50 is 0.571 µM and the TGI is 2.8 µM.

`OCc1ccc(C2CC(c3ccco3)=NN2c2ccccc2)o1` (stereo not given) yielded a TGI above 100 µM. `CSc1sc2ccccc2[s+]1`: the TGI is above 100 µM. In turn, `O=C(CCC1OCCO1)Nc1cc(NCc2ccccc2)ccc1OCc1ccccc1` came in with a TGI above 100 µM. As to `CC(=O)NC1c2ccccc2C(C)(C)C12CCC1(CC2)OCCO1` (stereo not given), the TGI is above 100 µM. Regarding `CCn1c(SCc2ccc(C)cc2)nnc1-c1nn(-c2ccc(Cl)cc2Cl)c(-c2ccc(Cl)cc2)c1C`, the GI50 is 2.71 µM and the TGI is 13 µM. `CC(=O)[C@@]1(O)CC[C@H]2[C@@H]3C[C@H](C)C4=CC(=O)C=C[C@]4(C)[C@@]3(F)[C@@H](O)C[C@@]21C` registered a TGI above 100 µM. `COc1cc2c3c(c1OC)C1(C=CC(=O)C=C1)C[C@H]3N(C)CC2`: the TGI was above 100 µM. As to `N#CC1CC2(C1)OCCS2` (stereo not given), the TGI is above 100 µM. On the same count and under the same terms, to `CCN1CCC(O)(/C=C/c2ccc(C)cc2C)C(C(=O)/C=C/c2ccc(C)cc2C)C1` (stereo not given) belongs 10.8 µM; to `CC(=O)O[C@H]1CC[C@@]2(C)C(=CC[C@H]3[C@@H]4C[C@H](N5CCOCC5)[C@H](OC(C)=O)[C@@]4(C)CC[C@@H]32)C1`, above 100 µM; to `O=C(N/N=C/c1cc(Br)cc(Br)c1[O-])c1ccccc1O.O=C(N/N=C/c1cc(Br)cc(Br)c1[O-])c1ccccc1O.[Cu+2]`, 1.77 µM. Regarding `O=[N+]([O-])/C(C(Cl)=C(Cl)Cl)=C(\N1CCCCC1)n1cncn1`, the TGI turned out to be 33.8 µM. Turning to `O=NN(CCCl)C(=O)NC1CCC(O)CC1` (stereo not given), the TGI is above 100 µM. The same measure, in the same setting: to `C=C(Cl)C(C)(Cl)CCC(Br)C(C)(C)Cl` (stereo not given) belongs above 100 µM. `CCOC(=O)NC(Nc1ccc([N+](=O)[O-])cc1)(C(F)(F)F)C(F)(F)F` displayed a TGI above 100 µM. Turning to `S=C(Nc1ccc2c(c1)oc1ccccc12)c1cccnc1`, the TGI was above 100 µM. Same read-out and setting: with `CCCCCCCCCCCC(=O)OCC1OC(OC)C(NC(=O)N(CCCl)N=O)C(O)C1O` (stereo not given) the figure was 26.9 µM. `O=C(O)c1ccc(OCc2nc3cc(C(F)(F)F)ccc3nc2-c2ccccc2)cc1`: the TGI is above 100 µM. Take `CCOC(=O)C1C2CCC1CC(=NNc1ccc([N+](=O)[O-])cc1[N+](=O)[O-])C2` (stereo not given): the TGI is above 50 µM.

Take `C=C([C@@]1(O)C[C@H]2[C@H](CCC2(OC)OC)[C@@H]2c3ccccc3O[C@@H]21)[Si](C)(C)C`: the TGI is above 100 µM. `O=C1c2ccccc2C2(c3ccc(Cl)cc3)N[C@H]3CCCC[C@@H]3N12` (stereo not given in full) gave a TGI above 100 µM.

On to `O=C1CCCC[C@H]1[C@H]1CCC[C@@H]([C@H]2CCCCC2=O)C1=O`, for which the TGI is above 100 µM. As for `N#CC1=C(N)N(c2ccccc2)C(c2ccccc2)C1(C#N)C#N` (stereo not given), the TGI amounted to 39.4 µM. As to `N#Cc1cccnc1Cl`, the TGI was above 100 µM.

Consider `CN(C)c1cc[c]([Sn]([c]2ccc(N(C)C)cc2)([c]2ccc(N(C)C)cc2)[c]2ccc(N(C)C)cc2)cc1`, for which the GI50 was 13.3 µM and the TGI was found to be 27.2 µM. Consider `Cn1c2ccccc2c(=NNc2cccc(C(=O)O)c2)c2ccccc21`, for which the TGI is 71.9 µM. As to `Cc1[nH]c2ccccc2c(=O)c1CC=C(Cl)Cl`, the GI50 is above 100 µM and the TGI is above 100 µM. `O=C1O[C@H](c2ccc3c(c2)OCO3)[C@H]2CO[C@@H](c3ccc4c(c3)OCO4)[C@@H]12` had a TGI above 100 µM. On the same count and under the same terms, to `O=C1CC2c3ccccc3CCC2c2ccccc21` (stereo not given) belongs above 100 µM. In the case of `COc1cccc2c(=O)c3c(sc12)c(N1CCNCC1)nc1ccccc13`, the GI50 is 1.65 µM and the TGI was 3.03 µM.

In the case of `C=C1CN2CC(=C)CN(C1)CS(=O)(=O)N1CC(=C)CN(CC(=C)C1)S(=O)(=O)N1CC(=C)CN(CC(=C)C1)S(=O)(=O)C2`, the TGI is above 100 µM. The compound `COc1cc(NC(C)CCCN)c2nccc(C)c2c1` (stereo not given) returned a TGI of 55.4 µM. `O=C1NC(=O)C(CC2CCCCCCCCCCC2=O)C(=O)N1` (stereo not given) registered a TGI above 100 µM. Compound `Cc1ccc(S(=O)(=O)C(C#N)c2nc3ccccc3nc2-n2ccnc2)cc1` (stereo not given) displayed a TGI above 100 µM. Take `O=c1c2ccccc2c(=O)c2c1[nH]c1c(-c3ccccc3)c(-c3ccccc3)c(=O)c12`: the GI50 was 2.58 µM and the TGI is 7.21 µM. The compound `CC1=C(CO)C(=O)O[C@@H]([C@@H](CO)[C@H]2CCC3C4C[C@@H](O)[C@@]5(O)CC=CC(=O)[C@]5(C)C4CC[C@@]32C)C1` (stereo not given in full) displayed a TGI above 100 µM. For `COC1C=COC2(C)Oc3c(C)c(O)c4c(O)c(c(C5SCCS5)c(O)c4c3C2=O)NC(=O)C(C)=C/C=C\C(C)C2OC(C)(C)OC(C2C)C(C)C(OC(C)=O)C1C` (stereo not given), the TGI turned out to be 41.2 µM. Regarding `CN(C)CCOC1(Cc2ccc(F)cc2)CCC(C(C)(C)C)CC1` (stereo not given), the TGI was 17.1 µM and 23.2 µM. In turn, `Nc1[nH]nc2nc3ccc(C(F)(F)F)cc3nc12` displayed a TGI above 100 µM. For `CC(=O)C(=CN1CCN(C(=O)c2ccco2)C1=S)C(C)=O`, the GI50 is 4.68 µM and the TGI worked out at 14.1 µM. `O=C1NC2OC(C(O)CO)C(O)C2O1` (stereo not given): the TGI was above 100 µM. On to `Nc1ccn(C2OC(CO)C(O)C2O)c(=O)c1` (stereo not given), for which the TGI is above 625 µM. As for `CCCSc1nc(COC(=O)NC)c(COC(=O)NC)n1C`, the TGI was above 100 µM.

`COc1ccc(NS(=O)(=O)c2ccc(NC(NC(=O)CC(C)C)(C(F)(F)F)C(F)(F)F)cc2)nn1` gave a TGI above 100 µM.

The compound `Cc1c(C(=O)/C=C/c2ccccc2)[n+](=O)c2ccccc2n1[O-]` yielded a TGI of 32.8 µM. `CCOC(=O)NC(Nc1cccc(C(F)(F)F)c1)(C(F)(F)F)C(F)(F)F`: the TGI is above 100 µM. For the compound `COc1c(C(C)C)cc2c3c1OC(=O)[C@@]31CCCC(C)(C)C1CC2` (stereo not given in full), the TGI is above 100 µM.

`[N-]=[N+]=NC1=C(c2ccccn2)C(=O)c2cccc3cccc1c23`: the TGI was above 100 µM. Compound `CCOc1ccc(/C=C2/C(=O)N=C(NC(C)=O)N2C)cc1` displayed a TGI above 100 µM. As for `COc1ccc(OC)c2c(C(=O)O)c(Cc3ccccc3)ccc12`, the TGI is above 100 µM. Take `COc1ccc(/C=C/C(=O)C(CC2CCC2)C(=O)/C=C/c2ccc(OC)c(OC)c2)cc1OC`: the GI50 was 2.55 µM and the TGI turned out to be 7.55 µM.

In the case of `CC(=O)OCC1OC(n2c3c(cc(C#N)c2=S)CCCCC3)C(OC(C)=O)C(OC(C)=O)C1OC(C)=O` (stereo not given), the TGI was above 100 µM. As for `O=C(O)[C@H](NS(=O)(=O)c1ccc([N+](=O)[O-])cc1)c1ccccc1`, the TGI was above 100 µM. As to `CCc1nc(C(N)=O)c(Nc2ccc(N3CCC(N4CCN(C)CC4)CC3)c(OC)c2)nc1NC1CCOCC1`, the GI50 is 0.857 µM and 0.289 µM and 1.43 µM; the TGI was 20.7 µM and > 2.93 µM and 19.4 µM. Turning to `COc1cc2[nH]c(C(=O)c3cc(OC)c(OC)c(OC)c3)c(N)c2cc1C#CC1CC1`, the GI50 was above 100 µM and the TGI is above 100 µM. With `O=C(O)C1C(Br)(c2ccccc2)C1(Br)c1ccccc1` (stereo not given), the TGI is above 100 µM. For `c1ccc(C2Nc3ccccc3C3OCCCC23)cc1` (stereo not given), the TGI is above 100 µM. In the case of `CC1(C)[C@@H](OC(N)=O)[C@H]2O[C@H]2[C@]2(C=O)[C@H]3CC[C@]4(C)[C@@H](c5ccc(=O)oc5)[C@@H](Cl)C[C@]4(O)C3=CC[C@@H]12`, the GI50 was 0.00628 µM and the TGI worked out at 0.0176 µM.

With `O=C1c2cccnc2-c2nccc3c2c1nc1cc(Br)ccc13`, the TGI came out at 0.343 µM. `O=S(=O)(Nc1cc(Sc2cccc3cccnc23)c(O)c2ccccc12)c1ccccc1`: the GI50 was 2.31 µM and the TGI came to 13.7 µM. On to `O=c1cccc(C#CC#CC2=CCCCC2)o1`, for which the GI50 is 17.8 µM and the TGI came out at 33.4 µM.

On to `CSC(C1c2ccccc2N(c2ccc(C)cc2)c2[nH]c(=O)n(C)c(=O)c21)S(=O)(=O)c1ccc(C)cc1` (stereo not given), for which the TGI was above 100 µM. Take `COC(=O)C1=C(C)NC(C)=C(C(=O)OC)C1c1nc2sccn2c1[N+](=O)[O-]`: the TGI is above 100 µM. The same measure, in the same setting: to `Nc1nc(F)nc2c1ncn2C1OC(CO)C(O)C1O` (stereo not given) belongs above 100 µM; to `CC(C)=CCNc1ncnc2c1ncn2CCC#N`, above 100 µM; to `C=CC/C=C/C/C=C/CCCCCCCc1cccc(O)c1C(=O)O`, above 100 µM. For the compound `CC(C)(C[C@H]1CN(S(=O)(=O)c2cccc(C(F)(F)F)c2)c2cc(-c3cc(F)cc(OC(F)F)c3)ccc2O1)C(=O)O`, the GI50 was 12.2 µM and the TGI came out at 25 µM. As for `CN(C)c1ccc(C2SCC(=O)N2c2ccc(Oc3ccc(Cl)cc3)c(Cl)c2)cc1` (stereo not given), the TGI was found to be 84.4 µM. In turn, `Nc1ccc(C(=O)N2CCC[C@H]2CO)c(N)c1` gave a TGI above 100 µM. `O=C1CSC(/C(=N/Nc2ccccc2)c2nc3ccccc3[nH]2)=N1`: the TGI is above 100 µM. `COc1ccc(CC2NCCc3cc(OC)c(OC)cc32)cc1Br` (stereo not given): the TGI was above 100 µM. `Oc1cccc(-c2nc3cc(F)ccc3s2)c1` registered a TGI of 94.7 µM. On to `Nc1nc(Cl)cc(NCC2(CO)CCCC2)n1`, for which the TGI was above 100 µM. For the compound `COc1cccc(C#Cc2ccccc2C#CCCCCO)c1`, the GI50 was 12.3 µM and the TGI is 26 µM. With `C=C1C(=O)OC2/C=C(\COC(C)=O)CCC(OC(C)=O)C3=CC(OC3=O)C12` (stereo not given), the TGI came to 18.3 µM. Consider `COc1cc(C(=O)c2cc(C)c3[nH]c4ccc(C)cc4c3c2C)cc(OC)c1OC`, for which the GI50 is below 0.01 µM and the TGI was above 100 µM. The compound `CC1=C(O)C(=O)C=C2C1=CC=C1[C@@]2(C)CC[C@@]2(C)[C@@H]3C[C@](C)(C(=O)O)CC[C@]3(C)CC[C@]12C` yielded a TGI of 1.12 µM.

For the compound `CC(C)(C)OC(=O)NCCCNC1(c2cc3ccccc3s2)CCCCC1`, the TGI was 27.5 µM.

For the origin of these results see PubChem BioAssay (NCI).
